Experimental data published in patent US10457961B2, “Chimeric proteins and methods of regulating gene expression” (The Board of Trustees of the Leland Stanford Junior …, priority 2016, dated 2019).

Tested on: GFP reporter
Test: GFP reporter activation by chimeric GPCR-dCas9-VPR receptors in HEK293T cells
Format: cell-based, human
Settings: sgRNA and β2-arrestin-protease; presence of ligand (LPA, SDF1, or CNO) compared to absence of ligand
Text: The released dCas9-VPR was then targeted by sgRNA to a target polynucleotide to alter expression levels of a GFP reporter.

B1: LPAR1-dCas9-VPR: chimeric LPAR1 GPCR fused to dCas9-VPR via TEV cleavage site (protein)
chain: MAAISTSIPVISQPQFTAMNEPQCFYNESIAFFYNRSGKHLATEWNTVSKLVMGLGITVCIFIMLANLLVMVAIYVNRRFHFPIYYLMANLAAADFFAGLAYFYLMFNTGPNTRRLTVSTWLLRQGLIDTSLTASVANLLAIAIERHITVFRMQLHTRMSNRRVVVVIVVIWTMAIVMGAIPSVGWNCICDIENCSNMAPLYSDSYLVFWAIFNLVTFVVMVVLYAHIFGYVRQRTMRMSRHSSGPRRNRDTMMSLLKTVVIVLGAFIICWTPGLVLLLLDVCCPQCDVLAYEKFFLLLAEFNSAMNPIIYSYRDKEMSATFRQILCCQRSENPTGPTEGSDRSASSLNHTILAGVHSNDHSVV
modifications: left off: small tags and cut ends
notes: chimeric LPAR1 GPCR fused to dCas9-VPR via TEV cleavage site
  levels of GFP reporter protein: increased levels of GFP reporter protein
